This is an account of results in the supplement of paper PMC11417369.

Some of the results follow.

The test system of this experiment is PfHDP1 homeodomain (GST-tagged). The experiment can be described thus: gcPBM binding intensity (ln(normalized median fluorescence intensity)); higher = stronger DNA binding. A digest of the protocol: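 In this array assay, P. falciparum DNA-binding domains with a GST tag, expressed in E. coli, were applied for 1 h to primer-extended double-stranded 36-bp intergenic genomic probes and negative controls on an Agilent 4 × 180k array. Bound protein was visualised with Alexa488 anti-GST antibody at 488 nm. Binding intensity is the highest Masliner-normalised natural-log median intensity across replicate spots of either probe orientation.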
Take “GTTTGTATGTCCAAATGTACATATGATTTTATGAAA [XGTACX_site6595]”: the “gcPBM binding intensity (ln)” value turned out to be 6.53.
“TATATTATAATAAGACGTACAAGGATGTTAAAACTT [XGTACX_site5828]”: the “gcPBM binding intensity (ln)” value came out at 6.59.
Under TTAATTATGGACAGGGTGCACATGAATAATAATACC stands 9.71; under “ATGTTTTATATTTTTTTTTTGTTTGCTTGTTTCCTC [CACACA_negctrl_site870]”, 6.61; under “AAGGGAAATATTGAAACACACACGAACCCACGTATT [CACACA_site252]”, 6.35.
“ATACTAAATGAACACACACACATATATATATATAAT [CACACA_site4232]”: the “gcPBM binding intensity (ln)” value was 6.86.
Regarding “AACAGACATAGAAACACACATACATACATACATACA [CACACA_site2479]”, the “gcPBM binding intensity (ln)” value was determined as 7.76.
Turning to “AAATAAATATATAATACACACAAAAATATAAAATGG [CACACA_site5943]”, the “gcPBM binding intensity (ln)” value came out at 6.96.
Regarding “TATAACTTTTTTATTACACACCTATGTAATATTATA [CACACA_site944]”, the “gcPBM binding intensity (ln)” value came to 6.61.
On to “ATAGTATACAGACACACACACACACCCATATATATA [CACACA_site1736]”, for which the “gcPBM binding intensity (ln)” value is 7.1.
As for “AGGATATAAATATTCACACACACATGGAGATATATA [CACACA_site6317]”, the “gcPBM binding intensity (ln)” value is 6.41.
As to “TTATAATATTAATGTGCACACAATTAAAATATTATA [CACACA_site2046]”, the “gcPBM binding intensity (ln)” value came to 10.7.
Under “TACTGTGTTTTGGTTGTACACACGCTACATTATATA [CACACA_site8863]” stands 7.26.
In the case of “TTCTTAAATGTAAATGTATATGTATTAAAAAGAGAA [TGCATGCA_negctrl_site597]”, the “gcPBM binding intensity (ln)” value amounted to 6.64.
In the case of “GTTAAGGGTATATATACACACATATGTAATACATGA [CACACA_site5650]”, the “gcPBM binding intensity (ln)” value was 6.93.
Under “TCCATCCACATATATGTACACACATATATATATATA [CACACA_site8970]” stands 9.23.
Take “TATACATTTATGTACACACACATATATGTATATTTA [CACACA_site2966]”: the “gcPBM binding intensity (ln)” value worked out at 6.33.
For the sequence “AATAAATATCAATACACACACACAAAAGTGAATAAA [CACACA_site3763]”, the “gcPBM binding intensity (ln)” value is 6.88.
As for ACAATTTTATTTAAAGTGCATGTAAAATTAAAACTT, the “gcPBM binding intensity (ln)” value was 7.44.
The value for “AAAGGAAGAAAAAATAGTACATATATATATATATAA [XGTACX_site766]” was 6.78.
Consider “TTTTGTTAGTTTTTTTTCTTATATTACATTTTCACG [CACACA_negctrl_site1466]”, for which the “gcPBM binding intensity (ln)” value was 6.47.
Turning to “TTTTTTATATTAAATGAAGAATATACAAAATTTTAA [CACACA_negctrl_site558]”, the “gcPBM binding intensity (ln)” value was determined as 6.23.
Under “ATGTAGTCTCAAGACTGTACAAACAAGTAAATAAAA [XGTACX_site4120]” stands 6.8; under “AAATTATAAATAATTTGTACATAAAAATTGGTAAAG [XGTACX_site5197]”, 6.61; under “ACATGTGAAGGGAACATAAATTGGGGTTTTATATTG [XGTACX_negctrl_site508]”, 7.06.
As to “GAATATAAAAAAGAATGTACTTGAACAGTCCTAAAA [XGTACX_site745]”, the “gcPBM binding intensity (ln)” value was 5.83.
As to “TTTTTTGCTTTCAACACACATACAATCTATATAATC [CACACA_site4125]”, the “gcPBM binding intensity (ln)” value came to 6.77.
For the sequence “TAAACCTGTAGAGATGCATGCATTGTTAACATGGTG [TGCATGCA_site515]”, the “gcPBM binding intensity (ln)” value turned out to be 6.65.
As for “AAGGAGAAATAAATATTAAAAAATTTATATATATAT [CACACA_negctrl_site1801]”, the “gcPBM binding intensity (ln)” value came to 8.74.
For “TTCTTTTTTAACAACAAAAAAAAAAAAAAAAAAAAA [TGCATGCA_negctrl_site87]”, the “gcPBM binding intensity (ln)” value was found to be 6.03.
Consider “TAATATTGCAAATATAAAAAAAAATAAACCATATAT [XGTACX_negctrl_site458]”, for which the “gcPBM binding intensity (ln)” value turned out to be 7.85.
For “CATTATAAAAAATAAAAAAGAAATAATTGTATATGC [CACACA_negctrl_site478]”, the “gcPBM binding intensity (ln)” value worked out at 6.62.
As for “ATGAAATATATTATATGTACATATTTATTTTTTATA [XGTACX_site7319]”, the “gcPBM binding intensity (ln)” value stood at 6.34.
Regarding “ATTTTTTACGTATAGTACAAAGTTTTATGATACATA [CACACA_negctrl_site965]”, the “gcPBM binding intensity (ln)” value came out at 6.26.
As for “AAATGCTAAAAATAGAGTACAGATAACGAAAAGTGT [XGTACX_site8830]”, the “gcPBM binding intensity (ln)” value came to 7.28.
Regarding “AAATAGTAAATAAGGGGTACAAAAAAAAAAAAAAAA [XGTACX_site8362]”, the “gcPBM binding intensity (ln)” value turned out to be 6.3.
For the sequence “AAAAAATTGACTAATGCACACAATTACATATATATA [CACACA_site1689]”, the “gcPBM binding intensity (ln)” value is 10.2.
“AATTGTTCTATGATTTGTACACACTTTTTTTTAAAA [XGTACX_site5984]”: the “gcPBM binding intensity (ln)” value came out at 6.95.
Under “ATTATAAATACACGCACACACACTTATATATATATA [CACACA_site5776]” stands 8.95; under “CAATTTTTCTATCATTGTACTTTTATATAATAGTGT [XGTACX_site1810]”, 6.4; under “GCATTGATCAAACATACACACATGGTTAATAAAAAT [CACACA_site2085]”, 6.74.
Regarding “TTTATATAATATTCTACACACCAACAACAAACATAT [CACACA_site4478]”, the “gcPBM binding intensity (ln)” value came to 7.17.
Turning to “ATATATATATATAATACACACATAAATGAATATATA [CACACA_site316]”, the “gcPBM binding intensity (ln)” value turned out to be 8.93.
On to “GTGATTTCTATGAATTGTACTTAAATATAGTTATAT [XGTACX_site231]”, for which the “gcPBM binding intensity (ln)” value came out at 6.21.
Turning to “CGTCCAAAATATCCTTCACACACGAACAGTTTCATT [CACACA_site2729]”, the “gcPBM binding intensity (ln)” value was found to be 6.79.
